These results are taken from ChEMBL document CHEMBL4888484, “Replenishing the malaria drug discovery pipeline: Screening and hit evaluation of the MMV Hit Generation Library 1 (HGL1) against asexual blood stage Plasmodium falciparum ,using a nano luciferase reporter read-out” (2022).

Molecules are shown by their SMILES. Out of some 150,000 compounds screened, about 540 (0.36%) showed an effect of 50% or more. This is one part of the list.

This assay has as its system Plasmodium falciparum. The assay can be described thus: Primary screen in NF54 nanoGlo assay, in single point, at 2uM, 72h; a lower Z score goes with more inhibition. It is filed as functional, Erythrocyte. Particulars: timepoint 72 hour.
By % Inhibition is commonly meant the drop in the measured response relative to a control, in per cent. Turning to `Cc1c(C(=O)N2Cc3ccccc3N(C)C[C@@H]2C)cnn1C(C)C`, the “% Inhibition” value is listed as -10% and the Z score was 1.9.

Take `Cc1cc(C)nc(C(C#N)C(=O)C2CC2c2c(F)cccc2F)n1` (stereo not given): the “% Inhibition” value turned out to be 3% and the Z score is given as -0.57.

For the molecule `Cc1noc(C)c1CN(C)C(=O)[C@H]1CCCN(S(C)(=O)=O)C1`, the “% Inhibition” value is listed as -10% and the Z score amounted to 1.51.

For `Cc1ccc([C@H]2CN(C(=O)C3CCCCC3)C[C@@H]2N(C)C)cc1`, the “% Inhibition” value was 14% and the Z score is -1.79.

Take `C[C@@H](c1nccs1)n1ccnc1-c1cc(-c2ccccc2)no1`: the “% Inhibition” value was -13% and the Z score worked out at 1.21.

As for `O=C(NOCc1cccnc1)N1CCC[C@@H]1Cn1ccnc1`, the “% Inhibition” value is -5% and the Z score was determined as 0.71.

`O=C(CN1C(=O)NC2(CCCC2)C1=O)c1ccc2c(c1)OCCO2`: the “% Inhibition” value was 35% and the Z score is recorded as -3.92.

As for `C=CCOC[C@@H](O)CN(CCOC)Cc1cccn1C`, the “% Inhibition” value was -5% and the Z score was determined as 0.71.

Consider `CC(C)(C)c1ccc(-n2ncc3c2CCC[C@@H]3NC(=O)Cc2cnc3ncnn3c2)cc1`, for which the “% Inhibition” value was -14% and the Z score stood at 2.42.

Take `C[C@@H](c1nc2ccccc2c(=O)[nH]1)N(C)CCN(C)C1CCCCC1`: the “% Inhibition” value is -2% and the Z score turned out to be 0.26.

Turning to `CS(=O)(=O)CCn1ccnc1-c1ccccc1-c1ccco1`, the “% Inhibition” value was -19% and the Z score worked out at 2.85.

Consider `COc1cccc(NC(=O)N2CC(O)CC2C2CCCCC2)c1` (stereo not given), for which the “% Inhibition” value is recorded as 34% and the Z score is recorded as -5.28.

`CCCCNC(=O)C(C)N1CCN(C)C(C(C)(C)C)C1` (stereo not given): the “% Inhibition” value is given as -9% and the Z score came out at 1.68.

Take `Cc1sc(CCNC(=O)[C@@H]2CCC(=O)N2)nc1-c1ccccc1`: the “% Inhibition” value is reported as -10% and the Z score came out at 1.12.

In the case of `CCC1Oc2cc(C(C)NC(=O)C3=Cc4ccccc4OC3)ccc2NC1=O` (stereo not given), the “% Inhibition” value is given as -15% and the Z score was 1.65.

Turning to `CCNC(=O)c1ccc(N2CC(O)CC2CO)nc1` (stereo not given), the “% Inhibition” value is on record as -2% and the Z score was 0.33.

Turning to `CCc1cc(O)nc(CN(C)Cc2csc([C@H](C)OC)n2)n1`, the “% Inhibition” value was -10% and the Z score is 1.85.

With `c1ccc2oc(CN3CCC(Cn4ccnc4)CC3)cc2c1`, the “% Inhibition” value is -16% and the Z score worked out at 1.58.

Regarding `CC(C)n1cc(-c2ncnn2-c2ccc3c(c2)OCCO3)cn1`, the “% Inhibition” value is -8% and the Z score worked out at 0.99.

With `O=S(=O)(N1CCOCC1)N1CCC[C@H]1c1nc2ccccc2s1`, the “% Inhibition” value was -5% and the Z score came to 0.75.

Take `COC(=O)c1cccc2c1CCN(C(=O)c1nc(C)oc1C)C2`: the “% Inhibition” value is -5% and the Z score is given as 0.91.

Turning to `O=C(N[C@@H](CO)c1cccc(Cl)c1F)c1occ2c1CCOC2`, the “% Inhibition” value was -2% and the Z score is 0.27.

Regarding `CCOc1ccc(CN2C[C@H](OC)[C@@H](O)C2)cn1`, the “% Inhibition” value is given as -16% and the Z score was 1.44.

Consider `CCn1nc(CN2CCS(=O)(=O)c3ccccc3C2)c2ccccc21`, for which the “% Inhibition” value was found to be 0% and the Z score is 0.05.

With `CCc1nnc2n1C[C@@H](NCc1cnc(-c3ccccc3)nc1)CC2`, the “% Inhibition” value is given as 5% and the Z score is -1.

As to `CCc1nnc2n1C[C@@H](NCc1ccc(N3CCOCC3)cc1)CC2`, the “% Inhibition” value was -2% and the Z score is 0.45.

Turning to `Cc1ccccc1Cc1nnc2n1CCCC2`, the “% Inhibition” value was -8% and the Z score stood at 1.32.

Take `Cc1nc2ccnn2cc1C(=O)N[C@H]1CCC(=O)N(C)C1=O`: the “% Inhibition” value was -8% and the Z score worked out at 1.59.

Turning to `O=C(CCc1ccc(O)cc1)N1C[C@@H]2CC[C@H]1CN(Cc1ccccn1)C2`, the “% Inhibition” value is given as 7% and the Z score is listed as -1.03.

`c1ccc(NC2=NNC(Nc3ccccc3)=NN2)cc1`: the “% Inhibition” value turned out to be 8% and the Z score is -1.03.

On to `O=C(N1CCn2nncc2C1)[C@]1(O)CCc2cc(Br)ccc2C1`, for which the “% Inhibition” value amounted to 4% and the Z score is recorded as -0.62.

Consider `CCOCCCNC(=O)CN1C(=O)CCn2nc(-c3cccc(Cl)c3)cc21`, for which the “% Inhibition” value is reported as 2% and the Z score was -0.24.

As to `CCN(CC)C(=O)N1CCC[C@H](Oc2nc(C(C)C)nc3c2CCOCC3)C1`, the “% Inhibition” value is -6% and the Z score came out at 1.01.

`CC(C)(C)NC(=O)COC(=O)c1cccc(F)c1`: the “% Inhibition” value is listed as -7% and the Z score is on record as 1.06.

Take `Cc1noc(C)c1C(=O)Nc1sc(C)c(-c2ccccc2)c1C(N)=O`: the “% Inhibition” value was -13% and the Z score is on record as 1.69.

As to `CN(CCc1noc(COc2ccccc2F)n1)S(=O)(=O)c1cccc(C#N)c1`, the “% Inhibition” value was -12% and the Z score was found to be 1.16.

Turning to `Cc1cc(Cl)ccc1CNCc1cccc(-c2nnc[nH]2)c1`, the “% Inhibition” value was -4% and the Z score was 0.78.

Consider `Clc1ccc(Oc2nc(-c3ccccc3)c3cc(Br)ccc3n2)cc1`, for which the “% Inhibition” value is listed as -4% and the Z score is given as 0.72.

Consider `COCc1cc(N[C@@H]2COCC[C@@H]2OCCO)ncn1`, for which the “% Inhibition” value is given as -21% and the Z score is 1.93.

As to `OC[C@@H]1CCCN1Cc1cc(O)c2cccc(Cl)c2n1`, the “% Inhibition” value came out at 0% and the Z score is on record as -0.09.

In the case of `C[n+]1cn(CC(=O)Nc2ccccc2)c2ccccc21`, the “% Inhibition” value was -1% and the Z score turned out to be 0.18.

On to `CC1CCCC(OCC(=O)N2CCC3(C2)OCCO3)C1` (stereo not given), for which the “% Inhibition” value is given as -8% and the Z score is listed as 0.97.

Take `c1ccc2c(c1)C[C@H](Cc1ccc(NC3CCCC3)nn1)CO2`: the “% Inhibition” value turned out to be 5% and the Z score is listed as -0.67.

Turning to `CN(C[C@H](O)C(F)(F)F)S(=O)(=O)c1ccccc1`, the “% Inhibition” value is -3% and the Z score is reported as 0.28.

On to `CC(C)Cc1cc(CN2CCCn3nc(C#N)cc3C2)no1`, for which the “% Inhibition” value is given as -9% and the Z score was 1.3.

With `CN(C)CCn1ccnc1C1CCN(C(=O)c2cnn3ccccc23)CC1`, the “% Inhibition” value is -14% and the Z score turned out to be 2.4.

In the case of `O=C(Nc1ccncc1F)N[C@H]1CCCc2occc21`, the “% Inhibition” value is -8% and the Z score was found to be 1.43.

For the molecule `Cc1nc([C@@H]2CCCCN2Cc2cn(C)nc2C2CC2)no1`, the “% Inhibition” value was -1% and the Z score was determined as 0.13.

Consider `CN(C(=O)Cn1c(=O)n(-c2cc(F)cc(F)c2)c(=O)c2sccc21)c1ccccc1`, for which the “% Inhibition” value was found to be 36% and the Z score was -4.06.

`COc1ccc(C(OC(=O)c2cscn2)C(C)n2cccn2)cc1` (stereo not given): the “% Inhibition” value is on record as -6% and the Z score is 0.81.

Turning to `Cc1c(Cl)cccc1S(=O)(=O)n1cc2c(=O)n(C(C)C)c(=O)n(C(C)C)c2n1`, the “% Inhibition” value came to 2% and the Z score is on record as -0.21.

As for `Cc1cc(C)cc(N2C[C@@H](c3nnc(NC(=O)c4ccccc4F)s3)CC2=O)c1`, the “% Inhibition” value was -1% and the Z score is recorded as 0.11.

In the case of `CC(C)(C)n1cc(CNc2nnc(C3CC3)o2)nn1`, the “% Inhibition” value is -9% and the Z score came out at 1.51.

Regarding `O=C(O)c1nc2ccccn2c1-c1ccc(F)c2cccnc12`, the “% Inhibition” value is recorded as -21% and the Z score was 1.86.

Take `COCCc1nc(-c2cc3ncccn3n2)n(Cc2ccccc2C)n1`: the “% Inhibition” value came to 5% and the Z score is on record as -0.89.
